Hit rate of the full screen: of about 410,000 compounds, about 6,400 (1.6%) were called active. Inconclusive means that the source gave no clear call. Such entries were picked first, then a sample of the others. Calls come from the whole dose curve; as a rule, active = well fitted inhibition curve with a large enough effect; inconclusive = small, poorly fitted or top-dose-only effect; inactive = no such curve, though single readings can be large or run the other way. Potencies of inconclusive entries are left out as doubtful fits.
The molecules below were run against Glucagon-like peptide 1 receptor (Homo sapiens) (UniProt P43220) (assay: qHTS of GLP-1 Receptor Inverse Agonists (Inhibition Mode)). Conditions: HEK293 GLP-1R CRE-luciferase, luminescence, 24 h, GLP-1R form is constitutively active; activity change, negative = inhibition: at 38.3 µM (top of the series) unless noted.
Outline: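 HEK293 cells stably co-expressing constitutively active GLP-1R and a cAMP-responsive luciferase reporter were seeded in DMEM with 10% Nu serum, given compounds after 12 h, and incubated 24 h at 37 deg C. Luminescence was then read.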
% is set by controls: 0 for no effect and ±100 for the full control effect; potency is the fitted concentration of half-maximal effect; tags give direction and shape of the fitted curve.
Note: nearly all actives have a fitted effect of over 55% in size.

Sequence of UniProt P43220 (P43220 whole entry, looked up): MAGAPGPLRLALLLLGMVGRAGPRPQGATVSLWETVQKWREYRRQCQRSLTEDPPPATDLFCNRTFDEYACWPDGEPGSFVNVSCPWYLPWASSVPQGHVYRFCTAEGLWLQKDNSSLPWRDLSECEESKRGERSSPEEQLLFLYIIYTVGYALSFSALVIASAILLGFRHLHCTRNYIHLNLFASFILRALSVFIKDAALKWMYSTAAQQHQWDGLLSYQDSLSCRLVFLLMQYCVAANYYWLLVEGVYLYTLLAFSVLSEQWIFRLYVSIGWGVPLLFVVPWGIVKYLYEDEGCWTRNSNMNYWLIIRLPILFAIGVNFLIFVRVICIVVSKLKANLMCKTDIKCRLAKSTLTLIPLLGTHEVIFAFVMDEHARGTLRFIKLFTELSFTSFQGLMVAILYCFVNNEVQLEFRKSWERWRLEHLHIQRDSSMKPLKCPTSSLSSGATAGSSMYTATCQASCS

SMILES	activity change, negative = inhibition	Potency
Cc1ccc(-c2n[nH]c(=S)n2/N=C\c2ccco2)cc1	inactive: 25.5%	–
CNC[C@@H]1Oc2ccc(NC(=O)Nc3c(C)noc3C)cc2CC(=O)N([C@H](C)CO)C[C@H]1C	inactive: 12.8%	–
COc1ccccc1/C=C/c1nc2ccccc2c(=O)o1	–	inconclusive [inhibitor, partial curve]
O=C(C1CCC1)N1CCN(c2ccc(C(F)(F)F)cc2[N+](=O)[O-])CC1	inactive: -15.2%	–
CCOC(=O)COc1nc(Nc2ccccc2C)nc(N(C)C)n1	–	inconclusive [inhibitor, partial curve, poor fit]
O=C(c1ccc(Cl)cc1)N1CCc2c([nH]c3ccccc23)C1C(F)(F)F (centres undefined)	–	inconclusive [inhibitor, partial curve, poor fit]
COc1ccc(-c2coc3cc(O[C@@H]4O[C@H](CO)[C@@H](O)[C@H](O)[C@H]4O)c(OC)cc3c2=O)cc1	inactive: 12.1%	–
COc1ccc(N2CCN(C(=S)NC(=O)c3cccs3)CC2)c([N+](=O)[O-])c1	–	inconclusive [inhibitor, single point]
O=C(CSC1CCCCC1)Nc1ccccc1Br	–	inconclusive [inhibitor, single point]
Cc1noc(C)c1C(=O)NCc1ccccc1	inactive: 22.7%	–
CCCN1CC(=O)N2C(c3cccc(OC)c3OC)c3[nH]c4ccccc4c3C[C@H]2C1=O (some centres undefined)	–	inconclusive [inhibitor, partial curve, poor fit]
CCN(CC)C(=O)c1ccc(S(=O)(=O)Cc2ccc(C)cc2)c([N+](=O)[O-])c1	–	inconclusive [inhibitor, single point]
CCOc1ccc(CNc2ncc(-c3ccccc3)n2C)cc1	–	inconclusive [inhibitor, partial curve, poor fit]
Cc1ccc(C)c(N2CCN(C(=O)c3ccc4[nH]c(C)c(C)c4c3)CC2)c1	–	active: 7.94 µM
O=S1(=O)CCOC[C@H](CC2CCCCC2)N1Cc1ccccc1	–	inconclusive [inhibitor, single point]
CC1CCCN(CCCNC(=O)c2ccc3c(c2)N(Cc2ccc(F)cc2)C(=O)c2ccccc2S3=O)C1 (centres undefined)	–	inconclusive [inhibitor, single point]
COc1ccc(-c2nc(CS(=O)CC(=O)NCCC3=CCCCC3)c(C)o2)cc1 (centres undefined)	–	inconclusive [inhibitor, single point]
Cc1ccccc1OCc1nc2ccccc2n1C	inactive: -10.6%	–
O=C(CN1CCN(Cc2cccc3ccccc23)CC1)NCCc1ccccc1	–	inconclusive [inhibitor, single point]
Cc1cccc(C)c1OCC(=O)NCc1nnc(SCC(=O)NC2CCCCC2C)n1C (centres undefined)	inactive: -11.5%	–
Oc1cccc(C(Nc2nccs2)c2ccc3cccnc3c2O)c1 (centres undefined)	–	inconclusive [inhibitor, single point]
CC(C)(C)c1cc(NC(=O)COc2ccc(Br)cc2)n(-c2ccccc2)n1	–	active: 8.91 µM

SMILES	activity change, negative = inhibition	Potency
CC(=O)c1ccc(-c2ccc(-c3cc(=O)oc4c(C(C)C)ccc(C)c34)cc2)cc1	–	inconclusive [inhibitor, partial curve, poor fit]
O=C(CN1C2CCCC1CC(NC(=O)C1CCCCC1)C2)Nc1ccccc1C(F)(F)F (centres undefined)	–	inconclusive [inhibitor, partial curve, poor fit]
COc1ccc(-c2c(S(=O)(=O)c3ccccc3)cnn2-c2ccccc2)cc1	–	inconclusive [inhibitor, single point]
Cc1ccc(N2CCN(C(=S)Nc3ccccc3)CC2)cc1	–	inconclusive [inhibitor, single point]
Cc1[nH]c2ccc(C(=O)OC(C)C(=O)N(C)C3CCCCC3)cc2c1C (centres undefined)	–	inconclusive [inhibitor, partial curve, poor fit]
CCOc1ccc(Cl)cc1C1CC(=O)Nc2cc(OC)c(OC)c(OC)c21 (centres undefined)	inactive: 3.54%	–
Cc1cccc(N2CCN(C(=O)c3ccc(NC(=O)c4nsc5ccccc45)cc3)CC2C)c1 (centres undefined)	–	inconclusive [inhibitor, single point]
O=C(Nc1ccncc1)C1CCC(CNS(=O)(=O)c2cccc3nsnc23)CC1 (centres undefined)	–	inconclusive [inhibitor, full curve]
CCOc1ccc(C(=O)NCC(=O)N2CCC3CCCCC3C2)cc1OCC (centres undefined)	–	inconclusive [inhibitor, partial curve, poor fit]
CC(C)=CCC[C@H](C)C[C@@H]1CC2=C(C(=O)OC(C)(C)O2)[C@H](c2ccc(F)cc2)O1	–	inconclusive [inhibitor, partial curve, poor fit]
CCOC(=O)N1CCN(c2ccncc2S(=O)(=O)N2CCCCC2)CC1	inactive: 12%	–
CN1C(=O)C2(C(C#N)=C(N)N(c3ccc(Cl)cc3)C3=C2C(=O)CC(C)(C)C3)c2ccccc21 (centres undefined)	inactive: -10.6%	–
COc1ccc(Cc2nnc(N/N=C/c3ccccc3O)[nH]c2=O)cc1OC	–	inconclusive [inhibitor, full curve, poor fit]
Cc1ccc(NC(=O)CNC(=O)OCc2ccccc2)cc1C	–	inconclusive [inhibitor, single point]
O=C(O)C1(C(=O)O)CCCC1	inactive: -12.4%	–
CCOC(=O)C(=O)c1c(-c2ccccc2)nc2ccccn12	–	inconclusive [inhibitor, partial curve, poor fit]
Cc1ccc(-c2cc3nc(-c4ccccc4)cc(N4CCC5(CC4)OCCO5)n3n2)cc1	–	inconclusive [inhibitor, partial curve, poor fit]
COc1cc(OC)c2c(-c3cccc(-c4ccc(CO)cc4)c3)cc(=O)oc2c1	–	inconclusive [inhibitor, full curve, poor fit]
Cc1noc(C)c1C(=O)NNc1cc(Cl)ccc1Cl	–	inconclusive [inhibitor, full curve, poor fit]
C#CCOCCOCCOCCNc1nc(N2CCN(C(=O)CCCCCCCCCCNC(=O)[C@H](CCCCN)n3cc(CCCC(=O)O)nn3)CC2)nc(N2CCN(C(=O)CCCCCCCCCCNC(=O)[C@H](CCCN=C(N)N)n3cc(C[C@@H](C)CC)nn3)CC2)n1	–	inconclusive [inhibitor, single point]
COc1ccccc1CNC(=O)c1sc2nc3n(c(=O)c2c1C)CCC3	inactive: -1.95%	–
CCC(C)NC(=O)CSc1ccc(S(=O)(=O)N(C)C2CCCCC2)cn1 (centres undefined)	–	inconclusive [inhibitor, single point]

SMILES	activity change, negative = inhibition	Potency
COc1ccc(-c2cnc(N)nc2-c2ccc(OC)cc2)cc1	–	inconclusive [inhibitor, single point]
COC(=O)[C@]12CCCCC=C1N(Cc1cccc3ccccc13)C(=O)[C@H](CC(=O)NCCCCc1ccccc1)C2	–	inconclusive [inhibitor, partial curve, poor fit]
O=Nc1c(O)n(Cc2ccc(Cl)c(Cl)c2)c2ccccc12	–	inconclusive [inhibitor, partial curve, poor fit]
COc1ccc(CCNC(=O)c2c(C)nn(-c3ccccc3)c2Cl)cc1	–	inconclusive [inhibitor, full curve, poor fit]
Cc1ccccc1NC(=O)C1Cc2ccccc2CN1C(=O)OCc1ccccc1 (centres undefined)	–	inconclusive [inhibitor, single point]
Cc1ccccc1C(=NC(=O)c1ccccc1)c1ccccc1	–	inconclusive [inhibitor, single point]
CN(C)C(=S)N=c1ssc(=S)n1Cc1cccnc1	–	inconclusive [inhibitor, full curve, poor fit]
CCCNCC(O)COc1ccccc1C(=O)CCc1ccccc1 (centres undefined)	–	inconclusive [inhibitor, single point]
Cc1ccc(CCNC(=O)c2ccc(CSCc3ccccc3C)o2)cc1	–	inconclusive [inhibitor, partial curve, poor fit]
CCOC(=O)C1(CC2CCCCO2)CCN(C(=O)Nc2ccccc2SC)CC1 (centres undefined)	–	inconclusive [inhibitor, full curve, poor fit]
CC1(C)Cc2cccc(OCC(=O)OCC(=O)Nc3ccc(C(N)=O)cc3)c2O1	inactive: 4.89%	–
Nc1cccc2[nH]c(=O)c3ccccc3c12	inactive: 2.81%	–
COc1ccc(Nc2cc(C)c3cc(NC(=O)Cc4c(F)cccc4Cl)ccc3n2)cc1	–	inconclusive [inhibitor, partial curve]
Cc1cc(Cl)n2c(nc3ccccc32)c1C#N	inactive: -12.5% [at 0.307 µM]	–
O=C1CC(N2CCN(S(=O)(=O)c3cccc(C(F)(F)F)c3)CC2)C(=O)N1Cc1ccccc1 (centres undefined)	–	inconclusive [inhibitor, single point]
Cc1ccc2nc(-c3ccc(NC(=O)COc4ccc(Cl)c(C)c4)cc3)sc2c1	inactive: -9.5%	–
C=CCn1c(CCc2ccc(OC(C)C)cc2)n[nH]c1=S	–	inconclusive [inhibitor, partial curve, poor fit]
Cc1ccc(NC(=S)NNc2ncc(C(F)(F)F)cc2Cl)cc1	–	inconclusive [inhibitor, single point]
COc1ccc(C(=O)NC2CC(C)(C)Cc3c2cnn3-c2ccccc2C)c(OC)c1OC (centres undefined)	–	inconclusive [inhibitor, single point]
Cc1ccc(C(=O)N(C)c2ccc(OCC(=O)N3c4ccc(C)cc4C4CN(C)CCC43)cc2)cc1 (centres undefined)	–	inconclusive [inhibitor, single point]
